# Experimental data from the supplement of paper PMC8728848.
# Some of the results follow.
# B1: F17aG (Escherichia coli), Q99003 (protein)
# chain: MTNFYKVFLAVFILVCCNISQAAVSFIGSTENDVGPSLGSYSRTHAMDNLPFVYDTRNKIGYQNANVWHISKGFCVGLDGKVDLPVVGSLDGQSIYGLTEEVGLLIWMGDTKYSRGTAMSGNSWENVFSGWCVGANTASTQGLSVRVTPVILKRNSSARYSVQKTSIGSIRMRPYNGSSAGSVQTTVNFSLNPFTLNDTVTSCRLLTPSAVNVSLAAISAGQLPSSGDEVVAGTTSLKLQCDAGVTVWATLTDATTPSNRSDILTLTGASTATGVGLRIYKNTDSTPLKFGPDSPVKGNENQWQLSTGTETSPSVRLYVKYVNTGEGINPGTVNGISTFTFSYQ
# What was measured:
# Test in all cases: glycan array binding signal (z-score within array); higher = stronger binding
# Conditions in all cases: glycan notation: IUPAC condensed, linker removed
# [1] = target: Fuc(a1-2)Gal6S(b1-4)Glc6S
# How it was run: (§1)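 Columns mapping to the same glycan were averaged after glycan names were converted to IUPAC-condensed notation. The data come from 3228 arrays in the Consortium for Functional Glycomics database, limited to those with an available protein sequence. Binding is reported as a within-array Z-score averaged across arrays of one protein sequence and across linkers.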
# [2] = target: Fuc(a1-2)Gal6S(b1-4)GlcNAc
# How it was run: as §1
# [3] = target: Fuc(a1-2)GlcNAc
# How it was run: as §1
# [4] = target: Fuc(a1-2)[Gal(a1-3)]Gal
# How it was run: as §1
# [5] = target: Fuc(a1-2)[Gal(a1-3)]Gal(b1-3)GalNAc
# How it was run: as §1
# [6] = target: Fuc(a1-2)[Gal(a1-3)]Gal(b1-3)GlcNAc
# How it was run: as §1
# [7] = target: Fuc(a1-2)[Gal(a1-3)]Gal(b1-3)GlcNAc(b1-2)Man(a1-3)[Fuc(a1-2)[Gal(a1-3)]Gal(b1-3)GlcNAc(b1-2)Man(a1-6)]Man(b1-4)GlcNAc(b1-4)GlcNAc
# How it was run: as §1
# [8] = target: Fuc(a1-2)[Gal(a1-3)]Gal(b1-3)GlcNAc(b1-2)Man(a1-3)[Fuc(a1-2)[Gal(a1-3)]Gal(b1-3)GlcNAc(b1-2)Man(a1-6)]Man(b1-4)GlcNAc(b1-4)[Fuc(a1-6)]GlcNAc
# How it was run: as §1
# [9] = target: Fuc(a1-2)[Gal(a1-3)]Gal(b1-3)GlcNAc(b1-3)GalNAc
# How it was run: as §1
# [10] = target: Fuc(a1-2)[Gal(a1-3)]Gal(b1-4)Glc
# How it was run: as §1
# [11] = target: Fuc(a1-2)[Gal(a1-3)]Gal(b1-4)GlcNAc
# How it was run: as §1
# [12] = target: Fuc(a1-2)[Gal(a1-3)]Gal(b1-4)GlcNAc(b1-2)Man(a1-3)[Fuc(a1-2)[Gal(a1-3)]Gal(b1-4)GlcNAc(b1-2)Man(a1-6)]Man(b1-4)GlcNAc(b1-4)GlcNAc
# How it was run: as §1
# [13] = target: Fuc(a1-2)[Gal(a1-3)]Gal(b1-4)GlcNAc(b1-2)Man(a1-3)[Fuc(a1-2)[Gal(a1-3)]Gal(b1-4)GlcNAc(b1-2)Man(a1-6)]Man(b1-4)GlcNAc(b1-4)[Fuc(a1-6)]GlcNAc
# How it was run: as §1
# [14] = target: Fuc(a1-2)[Gal(a1-3)]Gal(b1-4)GlcNAc(b1-3)GalNAc
# How it was run: as §1
# [15] = target: Fuc(a1-2)[Gal(a1-3)]Gal(b1-4)[Fuc(a1-3)]Glc
# How it was run: as §1
# [16] = target: Fuc(a1-2)[Gal(a1-3)]Gal(b1-4)[Fuc(a1-3)]GlcNAc
# How it was run: as §1
# [17] = target: Fuc(a1-2)[Gal(a1-3)]Gal(b1-4)[Fuc(a1-3)]GlcNAc(b1-3)GalNAc
# How it was run: as §1
# [18] = target: Fuc(a1-2)[Gal(a1-4)]Gal(b1-4)GlcNAc
# How it was run: as §1
# [19] = target: Fuc(a1-2)[GalNAc(a1-3)]Gal
# How it was run: as §1
# [20] = target: Fuc(a1-2)[GalNAc(a1-3)]Gal(b1-3)GalNAc(a1-3)[Fuc(a1-2)]Gal(b1-4)GlcNAc
# How it was run: as §1
# [21] = target: Fuc(a1-2)[GalNAc(a1-3)]Gal(b1-3)GlcNAc
# How it was run: as §1
# [22] = target: Fuc(a1-2)[GalNAc(a1-3)]Gal(b1-3)GlcNAc(b1-2)Man(a1-3)[Fuc(a1-2)[GalNAc(a1-3)]Gal(b1-3)GlcNAc(b1-2)Man(a1-6)]Man(b1-4)GlcNAc(b1-4)GlcNAc
# How it was run: as §1
# [23] = target: Fuc(a1-2)[GalNAc(a1-3)]Gal(b1-3)GlcNAc(b1-2)Man(a1-3)[Fuc(a1-2)[GalNAc(a1-3)]Gal(b1-3)GlcNAc(b1-2)Man(a1-6)]Man(b1-4)GlcNAc(b1-4)[Fuc(a1-6)]GlcNAc
# How it was run: as §1
# [24] = target: Fuc(a1-2)[GalNAc(a1-3)]Gal(b1-3)GlcNAc(b1-3)GalNAc
# How it was run: as §1
# [25] = target: Fuc(a1-2)[GalNAc(a1-3)]Gal(b1-4)Glc
# How it was run: as §1
# [26] = target: Fuc(a1-2)[GalNAc(a1-3)]Gal(b1-4)GlcNAc
# How it was run: as §1
# [27] = target: Fuc(a1-2)[GalNAc(a1-3)]Gal(b1-4)GlcNAc(b1-2)Man(a1-3)[Fuc(a1-2)[GalNAc(a1-3)]Gal(b1-4)GlcNAc(b1-2)Man(a1-6)]Man(b1-4)GlcNAc(b1-4)GlcNAc
# How it was run: as §1
# [28] = target: Fuc(a1-2)[GalNAc(a1-3)]Gal(b1-4)GlcNAc(b1-2)Man(a1-3)[Fuc(a1-2)[GalNAc(a1-3)]Gal(b1-4)GlcNAc(b1-2)Man(a1-6)]Man(b1-4)GlcNAc(b1-4)[Fuc(a1-6)]GlcNAc
# How it was run: as §1
# [29] = target: Fuc(a1-2)[GalNAc(a1-3)]Gal(b1-4)GlcNAc(b1-3)Gal(b1-4)GlcNAc
# How it was run: as §1
# [30] = target: Fuc(a1-2)[GalNAc(a1-3)]Gal(b1-4)GlcNAc(b1-3)Gal(b1-4)GlcNAc(b1-3)Gal(b1-4)GlcNAc
# How it was run: as §1
# [31] = target: Fuc(a1-2)[GalNAc(a1-3)]Gal(b1-4)GlcNAc(b1-3)GalNAc
# How it was run: as §1
# [32] = target: Fuc(a1-2)[GalNAc(a1-3)]Gal(b1-4)[Fuc(a1-3)]GlcNAc
# How it was run: as §1
# [33] = target: Fuc(a1-2)[GalNAc(a1-3)]Gal(b1-4)[Fuc(a1-3)]GlcNAc(b1-3)GalNAc
# How it was run: as §1
# [34] = target: Fuc(a1-2)[GalNAc(a1-4)]Gal(b1-4)GlcNAc
# How it was run: as §1
# [35] = target: Fuc(a1-2)[GalNAc(b1-3)]Gal
# How it was run: as §1
# [36] = target: Fuc(a1-3)GlcNAc
# How it was run: as §1
# [37] = target: Fuc(a1-3)[Gal(b1-4)]Glc6S
# How it was run: as §1
# [38] = target: Fuc(a1-3)[Gal(b1-4)]GlcNAc
# How it was run: as §1
binder,measurement,setting,value
B1,glycan array binding signal (z-score),[1],-0.167
same,glycan array binding signal (z-score),[2],-0.148
same,glycan array binding signal (z-score),[3],-0.327
same,glycan array binding signal (z-score),[4],-0.211
same,glycan array binding signal (z-score),[5],-0.171
same,glycan array binding signal (z-score),[6],-0.205
same,glycan array binding signal (z-score),[7],-0.169
same,glycan array binding signal (z-score),[8],-0.172
same,glycan array binding signal (z-score),[9],-0.168
same,glycan array binding signal (z-score),[10],-0.249
same,glycan array binding signal (z-score),[11],-0.265
same,glycan array binding signal (z-score),[12],-0.159
same,glycan array binding signal (z-score),[13],-0.179
same,glycan array binding signal (z-score),[14],-0.133
same,glycan array binding signal (z-score),[15],-0.158
same,glycan array binding signal (z-score),[16],-0.183
same,glycan array binding signal (z-score),[17],-0.155
same,glycan array binding signal (z-score),[18],-0.165
same,glycan array binding signal (z-score),[19],0.386
same,glycan array binding signal (z-score),[20],-0.177
same,glycan array binding signal (z-score),[21],-0.249
same,glycan array binding signal (z-score),[22],-0.136
same,glycan array binding signal (z-score),[23],-0.143
same,glycan array binding signal (z-score),[24],-0.113
same,glycan array binding signal (z-score),[25],-0.247
same,glycan array binding signal (z-score),[26],-0.233
same,glycan array binding signal (z-score),[27],-0.099
same,glycan array binding signal (z-score),[28],-0.135
same,glycan array binding signal (z-score),[29],-0.171
same,glycan array binding signal (z-score),[30],0.023
same,glycan array binding signal (z-score),[31],-0.159
same,glycan array binding signal (z-score),[32],-0.188
same,glycan array binding signal (z-score),[33],-0.157
same,glycan array binding signal (z-score),[34],-0.242
same,glycan array binding signal (z-score),[35],-0.247
same,glycan array binding signal (z-score),[36],-0.228
same,glycan array binding signal (z-score),[37],-0.146
same,glycan array binding signal (z-score),[38],-0.244
